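Results reflect a 48-hour exposure of cells in 96-well plates to compound at five concentrations. Abbreviation: GI50, concentration required for 50% inhibition of growth.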 Calls of active or inactive are those of the source. No stated cut-off is given here; in the data, active = GI50 up to about 1.1 µM and inactive = higher.

Here are results for 77 molecules from ChEMBL document CHEMBL1201862, “PubChem BioAssay data set” (2004).

In this test the test system is NCI-H322M. The test can be described thus: growth of human tumour cells (NCI), 48 h.
Take `COc1cc(/C=C/c2ccc(O)c(OC)c2)cc(OC)c1`: the GI50 is inactive: 23.9 µM.

In the case of `Cc1ccc2c(c1)-c1c3c(nn1-c1ccccc1)-c1ccccc1SC3O2` (configuration not stated), the GI50 was inactive: > 100 µM.

Turning to `N#C/C(=C\N1CCNC1=S)C(=O)c1ccc2ccccc2c1`, the GI50 is inactive: > 100 µM. As to `CN(Cc1ccccc1)C(=O)c1ccccc1C(=O)O`, the GI50 is inactive: > 100 µM. On to `NC(=O)/C(=C\c1ccncc1)c1cccc2ccccc12`, for which the GI50 was inactive: > 100 µM. With `C=C(Cl)/C(=C\Cl)CCC(Cl)C(C)C` (configuration not stated), the GI50 is inactive: > 100 µM. Consider `C/C=C\C(CC(=O)O)CN1CCC2=C(C1)C(S(=O)(=O)C(F)(F)F)c1ccccc12` (configuration not stated), for which the GI50 was inactive: > 100 µM. Then `CCC(C)NC1=NCC(C)S1` (configuration not stated), with inactive: > 100 µM; and `CCOC(=O)C(=[N+]=[N-])C(=O)Nc1nn2nnnc2c2ccccc12`, with inactive: > 100 µM. Consider `O=C(NNCc1ccco1)c1cc2ccccc2[nH]1`, for which the GI50 is inactive: > 94 µM. Turning to `C[C@]12CCc3nonc3C1CC[C@@H]1C2CC[C@]2(C)C(=O)/C(=N\O)CC12` (some centres not stated), the GI50 is inactive: > 100 µM. `N#Cc1c(-c2ccc(Cl)cc2)cc(-c2ccc(Nc3ccnc4cc(Cl)ccc34)cc2)[nH]c1=O`: the GI50 was inactive: > 100 µM. With `Clc1cc(Cl)c2ns[s+]c2c1Cl`, the GI50 is inactive: > 100 µM.

On to `CCCCCCC(O)C(=O)OC1C2C(CC1(C)C)C(O)C13OC1C(O)C1(CO1)[C@@]23C` (some centres not stated), for which the GI50 was inactive: > 100 µM.

Consider `Clc1ccc(/N=C/C=C/Nc2ccc(Cl)cn2)nc1`, for which the GI50 is inactive: 16.3 µM. Take `C=C1CCCC(C)(C)[C@@H]1CC/C(C)=C/Cn1c2cccc(=O)c-2nc2ccccc21`: the GI50 was inactive: 2.24 µM. With `CCNC(=O)O/N=C1/C=C2CC[C@@H]3C(CC[C@@]4(C)C3CC[C@@H]4OC(=O)NCC)[C@@]2(C)CC1` (some centres not stated), the GI50 was inactive: 4.55 µM. As to `C[C@]12C=CC(=O)C=C1[C@@H](F)C[C@H]1[C@@H]3CC[C@](O)(C(=O)CO)[C@@]3(C)C[C@H](O)[C@@]12F`, the GI50 is inactive: > 100 µM. The value for `CN(Cc1ccccc1)/C(=N\C#N)N(Cc1ccccc1)Cc1ccccc1` was inactive: 38.5 µM; that for `O=C(c1ccccc1)c1ccc2[nH]c(-c3c(Cl)c(Cl)c(Cl)c(Cl)c3-c3nnc(-c4ccccc4)o3)nc2c1` was inactive: 62.1 µM; that for `CNC1C(=O)C(C)C(O)(C(CC(C)C(O)/C=C/C=C/CNC(=O)C(C)(C)C(O)\C(C)=C/C=C\C=C\Cc2cnc(C)o2)OC)C12C(=O)OC2C.CNC1C(=O)C(C)C(O)(C(CC(C)C(O)/C=C/C=C/CNC(=O)C(C)(C)C(O)\C(C)=C/C=C\C=C\Cc2cnc(C)o2)OC)C12C(=O)OC2COC` (configuration not stated) was inactive: 29.3 µM. In the case of `O=C(c1ccccc1)C(c1ccccc1)C1(O)C(=O)Nc2ccc(Br)cc21` (configuration not stated), the GI50 was inactive: > 100 µM. The value for `COC(=O)C1=C(C(=O)OC)SC2(S1)C1=C(CCC1)SC(C(=O)OC)=C2C(=O)OC` was inactive: 17.2 µM; that for `O=C(NCCCCN(CCCNC(=O)C(F)(F)F)Cc1ccccc1)C(F)(F)F` was inactive: > 100 µM. The value for `Cn1c(CCC#N)nc2ccc(Br)cc2c1=O` was inactive: 88.3 µM; that for `O=C1NC2C(CCO)CC=C[C@H]2c2cc3c(cc21)OCO3` (some centres not stated) was inactive: > 100 µM; that for `CC1=C(C(=O)OCCc2ccc([N+](=O)[O-])cc2)C(c2ccccc2C(F)(F)F)C(C(=O)OC(C)C)=C(C)N1` (configuration not stated) was inactive: 7.26 µM. Regarding `COc1ccc(C2COc3cc(OC(C)=O)c(OC(C)=O)cc3C2)cc1` (configuration not stated), the GI50 was inactive: 18.2 µM.

Regarding `CN(C)CCS/C(=N\c1ccccc1)n1cccc1`, the GI50 was inactive: > 100 µM. Turning to `c1ccc2nn(C3CCCO3)nc2c1` (configuration not stated), the GI50 is inactive: > 100 µM. Take `C[N+](C)(C)CC(=O)N/N=C(/Cc1cc(=O)oc2cc(O)ccc12)C(=O)Nc1ccc(Cl)cc1`: the GI50 is inactive: > 100 µM. With `CC(=O)C(=[N+]=[N-])C(=O)NCC#N`, the GI50 is inactive: > 10 µM. With `CN(C)c1ccc2c3c(c(=O)oc2c1)CCC3`, the GI50 is inactive: 87.9 µM.

Turning to `COC(=O)C1=C(C(=O)OC)SC(=C2S[C@@H]3[C@@H]4C[C@H]([C@@H]3S2)[C@H]2C(=O)OC(=O)[C@@H]42)S1`, the GI50 was inactive: > 100 µM.

Consider `Cc1cccc(Cn2c3c(c4cc(O)ccc42)C(=O)c2ccccc2C3=O)c1`, for which the GI50 was inactive: > 59.2 µM.

On to `Cc1ccccc1NC(=O)CC(=O)NNC(Sc1ccccc1)c1cc(/N=N/c2ccc(Br)cc2)ccc1O` (configuration not stated), for which the GI50 is inactive: 1.33 µM.

As for `O=C(CC1(O)C(=O)Nc2c(Cl)cc(Cl)cc21)c1cccc2ccccc12` (configuration not stated), the GI50 was inactive: 19.3 µM. Regarding `CN1CCN(C(=S)N(C(=O)c2ccc(Cl)cc2)c2ccccc2)CC1`, the GI50 was inactive: > 100 µM. Regarding `COC(=O)[C@@H]1Cc2c([nH]c3ccccc23)[C@H](c2ccccc2)N1`, the GI50 was inactive: 43.6 µM. For the molecule `CC(=O)OCC1OC(n2c(-c3cccs3)c3c(c(C#N)c2=S)-c2ccccc2CC3)C(OC(C)=O)C(OC(C)=O)C1OC(C)=O` (configuration not stated), the GI50 is inactive: 25.2 µM.

Take `CCOC(=O)c1cc(-c2ccc(-c3cc(C(=O)OCC)c(C#N)c(N)c3C#N)cc2)c(C#N)c(N)c1C#N`: the GI50 was inactive: > 100 µM. The value for `COc1ccc([C@H]2[C@H](C)C3=Nc4ccccc4CN32)cc1` was inactive: 57.1 µM. With `O=C1C2=C(c3ccccc31)C(c1cccc(Cl)c1)NC(S)=N2` (configuration not stated), the GI50 was inactive: > 100 µM.

Turning to `CCOC(=O)/C=C(/C(=O)OCC)n1cc(Cl)c(=O)n(CC(=O)OCC)c1=O`, the GI50 was inactive: > 25 µM. Turning to `CC(C)CCC[C@@H](C)C1CCC2[C@@H]3CC=C4C[C@@H](C(=O)NCC[N+](C)(C)CCCS(=O)(=O)[O-])CC[C@]4(C)C3CC[C@@]21C` (some centres not stated), the GI50 was inactive: 15.8 µM.

Take `O=C1/C(=C/c2cccc3ccccc23)Cc2ccccc21`: the GI50 is inactive: 37 µM. The value for `O=C1CCCC2=C1CC1=C(CCCC1=O)N2c1ccc(-c2ccccc2)cc1` was inactive: > 100 µM; that for `NS(=O)(=O)c1ccc(NC(=O)COC(=O)c2cccc3c(=O)c4ccccc4[nH]c23)cc1` was inactive: 24.2 µM; that for `CCOC(=O)Cc1csc(Nc2ccccc2[N+](=O)[O-])n1` was inactive: > 100 µM. As to `O=c1/c(=C/c2ccccn2)sc2nc3cc4c(cc3n12)OCCO4`, the GI50 was inactive: > 100 µM. Consider `Cn1c(=O)nc2n(CCO)c(-c3ccccc3)c(-c3ccccc3)nc-2c1=O`, for which the GI50 was inactive: > 100 µM. `c1ccc2c(c1)SCCC2NC1=NCCO1` (configuration not stated): the GI50 is inactive: > 100 µM. For the molecule `CC(C)CC1NC(=O)CCC(NC(=O)C(Cc2ccc(O)cc2)NC(=O)OCc2ccccc2)C(=O)NC(Cc2ccccc2)C(=O)NC(Cc2ccccc2)NC1=O` (configuration not stated), the GI50 was inactive: > 100 µM. As for `CCOC(=O)[C@@H]1ON2O[C@H](OC3CCCC3(c3ccccc3)c3ccccc3)C[C@H]3OC(=O)[C@@H]1C32` (some centres not stated), the GI50 was inactive: 77.4 µM. In the case of `OCCc1ccsc1-c1sc(-c2cc(CCO)c(-c3sccc3CCO)s2)cc1CCO`, the GI50 is inactive: 10.2 µM. For `O=C1/C(=C2\Sc3c(ccc(Cl)c3Cl)C2=O)Sc2c1ccc(Cl)c2Cl`, the GI50 was inactive: > 100 µM. In the case of `CC(=O)NC(CCCNCc1ccccc1)C(=O)NCc1ccccc1` (configuration not stated), the GI50 was inactive: > 100 µM. For the molecule `CC(C)(CN1CCCCC1)C(=O)CC(SCCS(=O)(=O)O)c1ccccc1` (configuration not stated), the GI50 is inactive: 16 µM.

`Cc1nc2sccn2c1C(=O)OCCOCCOCCOCCOC(=O)c1c(C)nc2sccn12`: the GI50 was inactive: 72.8 µM.

Turning to `O=c1c(-c2ccccc2)c(SCCO)n(-c2ccccc2)c(=S)n1-c1ccccc1`, the GI50 is inactive: > 100 µM. In the case of `CCOC(=O)C1(C/C=C(/C)Cl)CCCC1=O` (configuration not stated), the GI50 was inactive: > 100 µM. Then `Cl.O=C(O)c1cccnc1`, with inactive: > 100 µM; and `CC(=O)N1CC2Nc3ccccc3C2CC1CO` (configuration not stated), with inactive: > 100 µM; and `CCOC(CNc1nn2c(C)nnc2s1)OCC`, with inactive: > 100 µM.

For the molecule `NCCCCNc1ccc2c(=O)[nH][nH]c(=O)c2c1`, the GI50 was inactive: > 100 µM. Turning to `O=S(=O)(Nc1nc2ccccc2nc1N1CCCCCC1)c1ccccc1`, the GI50 was inactive: > 100 µM. The value for `C[N+](C)([O-])CCOc1cc2c(c3ccccc13)-c1ccccc1C2=O` was inactive: 19.1 µM; that for `O=c1oc2ccccc2c(-c2ccc(O)cc2)c1Oc1ccc(Cl)cc1` was inactive: 28.6 µM.

For the molecule `C[N+](C)(C)CCC(=O)N1C/C(=C\c2ccccc2)C(=O)/C(=C/c2ccccc2)C1`, the GI50 was inactive: 14.9 µM.

For `Cc1nnc2c3c(-c4ccccc4)c(-c4ccccc4)oc3nc(N(C)C)n12`, the GI50 is inactive: > 100 µM. Then `CCOC(=O)C1(C(=O)OCC)OC(C)=NC1(C(=O)OC)C(=O)OC`, with inactive: > 89.9 µM; and `C[C@]12CCC3C4=C(CCC3C1CCC2=O)C(=O)[C@H]1O[C@H]1C4=O` (some centres not stated), with inactive: 16.6 µM; and `CN(C)c1ccc(C(=C2C=CC(=[N+](C)C)C=C2)c2c(O)c(S(=O)(=O)[O-])cc3cc(S(=O)(=O)O)ccc23)cc1`, with inactive: > 100 µM. In the case of `Cn1cc(NC(=O)Nc2cc(C(=O)Nc3cc(C(=O)Nc4ccc5cc(S(=O)(=O)O)cc(S(=O)(=O)O)c5c4)n(C)c3)n(C)c2)cc1C(=O)Nc1cc(C(=O)Nc2ccc3cc(S(=O)(=O)O)cc(S(=O)(=O)O)c3c2)n(C)c1`, the GI50 was inactive: > 100 µM. Regarding `COC(=O)[C@@H](COC(=O)/C=C/c1ccc(OC(C)=O)c(OC(C)=O)c1)NC(=O)/C=C/c1ccc(OC(C)=O)c(OC(C)=O)c1`, the GI50 was inactive: 24.3 µM. Turning to `O=C(/C=C/c1ccc(O)cc1)c1cc(-c2cc(CCC(=O)c3ccc(O)cc3O)ccc2O)c(O)cc1O`, the GI50 is inactive: 15.8 µM.

`CCN(CC)C(=S)SNc1ccc(S(N)(=O)=O)cc1`: the GI50 is inactive: > 91.2 µM.
